The values that follow come from PubChem BioAssay AID1346428 (National Center for Advancing Translational Sciences (NCATS), 2018).

SMILES strings stand for the structures. In all, about 48,000 compounds went through this assay and about 1,200 (2.5%) were called active. Inconclusive results (about 2%) are left out.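 Rule for the calls: active = activation of at least 60% and not above a set upper limit (about 1 call in 100 departs from these limits); inconclusive = activation of 40% to 60%, or above that upper limit; inactive = activation under 40%.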 The list shows a part of the results.

The assay has as its target Probable G-protein coupled receptor 32 (Homo sapiens) (UniProt O75388). Description: qHTS for Agonists of Human Resolvin D1 Receptor DRV1. Note: 0% is about no effect. The following applies: CHO-K1 GPR32 beta-arrestin PathHunter luminescence, 90 min; at 76.9 µM; active compounds read high; zero percent set by DMSO-only wells. Put shortly: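 GPR32 activation in stably transfected CHO-K1 cells, detected as beta-arrestin recruitment by enzyme-fragment complementation. Compound exposure: 90 min, 37 °C.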
Chain of UniProt O75388 (O75388 whole entry, looked up, the tested form may be a part): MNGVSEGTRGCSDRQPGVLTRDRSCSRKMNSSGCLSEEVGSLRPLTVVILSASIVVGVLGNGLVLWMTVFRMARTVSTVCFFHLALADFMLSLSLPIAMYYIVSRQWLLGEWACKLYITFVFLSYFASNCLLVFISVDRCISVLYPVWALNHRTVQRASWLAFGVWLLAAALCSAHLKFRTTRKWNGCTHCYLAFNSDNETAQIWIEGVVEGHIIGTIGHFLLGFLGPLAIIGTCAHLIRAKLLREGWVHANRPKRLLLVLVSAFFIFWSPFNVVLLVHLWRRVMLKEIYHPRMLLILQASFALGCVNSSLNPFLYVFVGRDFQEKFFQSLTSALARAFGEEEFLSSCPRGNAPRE
On the technique in general: In qHTS, concentration-response curves come from the screen itself.
As for `O=C1c2ccccc2C(=O)C1(c1ccccc1)N1CCN(c2cccc(C(F)(F)F)c2)CC1`, the activation is inactive: -21.9%.
For the molecule `CCOc1ccccc1NC(=O)CCc1nc(-c2cccc(C)c2)no1`, the activation is inactive: -8.52%.
Turning to `CC(C)Oc1ccc(CNS(=O)(=O)c2csc(C(N)=O)c2)cc1`, the activation is inactive: 13.7%.
`Cc1cccc(C(=O)OCc2cc(=O)n3nc(C4CC4)sc3n2)c1`: the activation is inactive: 0.555%.
With `Cc1ccc(-c2nc(C(=O)Nc3cccc(C#N)c3)c3n2CCCCC3)cc1`, the activation was inactive: -7.6%.
Turning to `Cc1nc2nncn2c(Nc2ccc(F)cc2)c1C`, the activation is inactive: -4.48%.
For the molecule `COc1ccc(Cl)cc1NC(=O)c1cc2ccccn2n1`, the activation was inactive: -0.256%.
For `COc1cccc(-n2c(=O)c3sccc3n(Cc3cc(=O)n4cc(Cl)ccc4n3)c2=O)c1`, the activation was inactive: -17.5%.
Consider `CCC(=O)N1CCc2cc(S(=O)(=O)NCCC(=O)NCc3ccc(OC)cc3)ccc21`, for which the activation was inactive: 20%.
In the case of `CCCC1=Nc2cc(C(=O)NCC(C)c3ccccc3)ccc2Sc2ccccc21` (stereo not drawn), the activation was inactive: -15.4%.
Take `CCOc1ccc(CNC(=O)Cn2cc3c(n2)-c2c(oc(C(=O)N4CCCC4)c2C)CC3)cc1`: the activation is inactive: -9.6%.
As to `COc1cccc(CNC(=O)Cn2nc3c(cc2=O)CCCC3)c1OC`, the activation was inactive: 7.91%.
For `CC1CCCN(C(=O)CCS(=O)(=O)c2cc3c(cc2Cl)NC(=O)CO3)C1` (stereo not drawn), the activation is inactive: 15.3%.
The figure for `Cc1ccc(C2c3c(-c4ccccc4O)n[nH]c3C(=O)N2CCc2ccccc2)cc1` (stereo not drawn) is inactive: 6.99%; for `CC(=O)N1c2c(cc(Br)cc2S(=O)(=O)Nc2ccc(OC(F)(F)F)cc2)CC1C` (stereo not drawn) it is inactive: 30.8%.
Take `O=C(CCCn1c(=O)[nH]c2ccsc2c1=O)N1CCN(c2cccc(C(F)(F)F)c2)CC1`: the activation was active: 91.5%.
For the molecule `Cc1cc(Cl)ccc1NC(=O)CN1C(=O)COc2ccc(S(=O)(=O)N3CCC(C)CC3)cc21`, the activation was inactive: -12.2%.
Consider `CCOC(=O)c1noc2ncn(Cc3cccc(C#N)c3)c(=O)c12`, for which the activation is inactive: 6.76%.
Regarding `CCNc1nc(NC(C)CC)nc(Oc2ccc(OCC)nn2)n1` (stereo not drawn), the activation was inactive: 15.5%.
Consider `COc1ccc(NC(=O)NCc2c(-n3cccc3)sc3c2CCCC3)c(OC)c1`, for which the activation was inactive: -14.7%.
In the case of `CCc1cccc(C)c1NC(=O)NC1COc2ccccc2C1` (stereo not drawn), the activation is inactive: -7.66%.
In the case of `COc1ccc(OCC(=O)Nc2nc(-c3ccc(Br)cc3)ns2)cc1` it was inactive: 27.6%.
As to `Cc1c(C(=O)OC2CCC(C)CC2)[nH]c2c1C(=O)CC(c1ccccc1Cl)C2` (stereo not drawn), the activation was inactive: -13.7%.
The figure for `CCOc1ccc(CCNC(=O)CCCc2nnc3n(C)c(=O)c4sccc4n23)cc1OCC` is inactive: 5.04%; for `COc1ccccc1CN(Cc1ccco1)c1cnc(S(C)(=O)=O)nc1C(=O)Nc1ccccc1Cl` it is inactive: -5.47%; for `COc1ccc(NC(=O)CSc2nc(-c3ccc(OC)c(OC)c3)[nH]c2-c2ccc(C)cc2)cc1` it is inactive: -34.2%.
The figure for `COc1ccc(NCc2cc3cc4c(cc3n(CC(=O)Nc3ccccc3)c2=O)OCO4)cc1` is inactive: -44.8%; for `CCOC(=O)Cc1ccc(NC(=O)N(C(C)C)C2CCN(C(C)=O)CC2)cc1` it is inactive: 6.81%; for `COc1ccc(Nc2cc(C(=O)NCc3cccs3)c3ccccc3n2)cc1` it is inactive: -5.08%.
Take `O=C(CCCCn1c(=O)c2ccccc2n(CC(=O)Nc2ccc(F)cc2F)c1=O)NCc1ccccc1Cl`: the activation was inactive: 5.46%.
In the case of `CN1CCN(C(=O)C(=O)Nc2c3c(nn2-c2cccc(Cl)c2)CSC3)CC1` it was inactive: 3.54%.
`CCOc1ccc(C2=C(C(=O)CC)Sc3nncn3N2C(=O)CC)cc1`: the activation was inactive: -37.1%.
Turning to `Clc1ccc(C(Cn2ccnc2)OCc2ccsc2Cl)c(Cl)c1` (stereo not drawn), the activation was inactive: -108%.
Turning to `CCc1ccccc1N1C(=O)N(CC(=O)c2ccc(Cl)cc2)c2ccccc2S1(=O)=O`, the activation was inactive: -9.68%.
Take `Cc1ccc(Cn2c(=O)n(CCc3ccccc3)c(=O)c3c(C)c(C)sc32)cc1`: the activation was inactive: 18.7%.
As to `CCOC(=O)c1c(C)[nH]c(C)c1S(=O)(=O)N1CCCC(C(=O)NCc2ccc(C)cc2)C1` (stereo not drawn), the activation was inactive: -4.72%.
Consider `COC(=O)c1c(SC)nc2ccccc2c1OCc1ccc(C)cc1`, for which the activation is inactive: -38%.
On to `CCOC(=O)c1cc(S(=O)(=O)N2CCN(c3cccc(OC)c3)CC2)[nH]n1`, for which the activation was inactive: -18.4%.
The figure for `CCCCn1cc(S(=O)(=O)c2ccc(Cl)cc2)c(=O)c2cc(F)c(N3CCCC(C)C3)cc21` (stereo not drawn) is inactive: -10.9%; for `CCOC(=O)Cn1c(=O)oc2cc(S(=O)(=O)N3CCCC(C)C3)ccc21` (stereo not drawn) it is inactive: -12.5%.
With `O=C(NCc1ccc(Cl)cc1)c1ccc2oc(=O)n(Cc3ccccc3)c2c1`, the activation was inactive: 4.49%.
For the molecule `COC(=O)c1c(-c2ccc(Cl)cc2)noc1N1CCN(c2cccc(C)c2C)CC1`, the activation is inactive: 0.155%.
Turning to `CCc1cnc2c(c1SCC(=O)Nc1ccc(OC)c(OC)c1)c(=O)n(C)c(=O)n2C`, the activation is inactive: 2.59%.
`CCc1cccc(NC(=O)C(Cc2ccccc2)NS(=O)(=O)c2ccc3c(c2)c(=O)n(C)c(=O)n3C)c1` (stereo not drawn): the activation is inactive: -12.7%.
For `COc1cc(Cl)c(C)cc1Nc1nnc(-n2nc(C)cc2C)c2ccccc12`, the activation is inactive: -15.6%.
For `COc1ccc(-c2nc3sc(CCNS(=O)(=O)c4c(C)cc(C)cc4C)c(C)n3n2)cc1`, the activation was inactive: -9.77%.
On to `N[C@H]1CN(c2c(F)cc3c(=O)c(C(=O)O)cn(C4C[C@@H]4F)c3c2Cl)CC12CC2` (stereo partly drawn), for which the activation is inactive: -21.1%.
The figure for `Cc1cc(SCC(=O)Nc2nsc(-c3ccc(C(C)(C)C)cc3)n2)nc2ccccc12` is inactive: -42.9%; for `COc1cccc(N2CCN(C(=O)c3c4c(nc5ccccc35)C(=O)N(C3CCCCC3)C4)CC2)c1` it is inactive: -28.5%; for `COc1ccc(OCc2nc(C#N)c(NCc3ccccc3Cl)o2)cc1` it is inactive: -0.0626%.
On to `COc1cccc(NC(=O)C2CCCN2S(=O)(=O)c2ccc3nc(-c4ccccc4)[nH]c3c2)c1` (stereo not drawn), for which the activation was inactive: 35.6%.
In the case of `CCOC(=O)N1CCc2c(sc3c2c(=O)n(-c2ccc(CC)cc2)c(=O)n3Cc2cccc(OC)c2)C1` it was inactive: -10.6%; in that of `COc1ccccc1N1CCN(S(=O)(=O)c2ccc(-n3cnnn3)cc2)CC1`, inactive: -14.2%.
